# Data reported in PubChem BioAssay AID1656 (Sanford-Burnham Center for Chemical Genomics, 2009).
# Out of some 240,000 compounds screened, about 950 (0.4%) were called active. Inconclusive results, whose numbers are uncertain, are shown with a selection of clear calls.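 The calls were made as follows: active = lipid droplet intensity inhibited by at least 50%, with more than 500 cells counted; inconclusive = wells with under 300 cells, treated as cytotoxic; inactive = the rest.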
# Assay: inhibitors of hepatocyte lipid droplet formation, primary screen, imaging, high-throughput imaging, BODIPY stain (AID 1656)
# Details: AML12 mouse hepatocytes, oleate lipid droplets, at 6.5 µM, stronger effect = higher value
# In short: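 Assay system: AML12 mouse liver cells | Compound dosing: One dose, 6.5 µM compound | Read-out basis: Droplet intensity reduction, % inhibition | Measured by: Fluorescence imaging, 20x objective, two fields per well | Schedule: Overnight treatment with compound plus oleate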
row,SMILES,inhibition
1,O=C(CSc1ccc(Cl)cc1)N1CCN(c2ncc(C(F)(F)F)cc2Cl)CC1,inactive: 5.2%
2,Cc1ccc(C)c2[nH]c(=O)c(CN(Cc3cccs3)C(=S)NCc3ccco3)cc12,inactive: -8.1%
3,O=C(NCc1cccnc1)/C(=C\c1ccc(-c2ccc(Cl)c(Cl)c2)o1)S(=O)(=O)c1ccccc1,inactive: -18.3%
4,O=C(N/N=C/c1ccc2c(c1)OCO2)c1ccn(Cc2ccc(Cl)cc2)n1,inconclusive: 122%
5,CCN(CC)CCN1C2=C(C(=O)CC(C)(C)C2)C(c2cccc(F)c2)C2=C1CC(C)(C)CC2=O,inactive: 12.8%
6,N#CC1=C(N)Oc2c(ccc3ccccc23)C1c1cccs1 (configuration not stated),inconclusive: -132%
7,CCc1ccc(NC(=O)CSc2nc3ccccc3nc2N2CCCC2)cc1,active: 73.7%
8,COCCNC(=S)Nc1cc2oc3ccccc3c2cc1OC,inactive: 8.3%
9,CC(C)OC(=O)/C(=C/c1ccc2c(c1)c1ccccc1n2C)NC(=O)c1ccccc1,active: 53.3%
10,COc1ccc(NC(=O)COC(=O)/C=C/C(=O)OCC(=O)Nc2ccc(OC)c(Cl)c2)cc1Cl,active: 63.3%
11,COc1ccc(N(C(=O)CCl)C(C(=O)NC2CCCCC2)c2cccnc2)cc1 (configuration not stated),inconclusive: -106%
12,Cc1ccc2nc(SCc3nc4ccccc4c(=O)[nH]3)[nH]c2c1,inactive: 3.2%
13,COc1cc2c(c(OC)c1OC)-c1ccc(OC)c(=O)cc1[C@@H](NC(C)=O)CC2,inconclusive: -196%
14,Cc1ccc(-n2nc3c(c2NC(=O)CC(C)C)CS(=O)C3)cc1 (configuration not stated),inconclusive: -144%
15,O=C(Nc1ccc([N+](=O)[O-])cc1)Nc1ccon1,inconclusive: -139%
16,COc1ccc(N(C(=O)c2ccccc2C)S(=O)(=O)c2cccs2)cc1,inconclusive: -151%
17,COc1cc(C(=O)Nc2nc(-c3ccc(F)cc3)cs2)ccc1OCC(=O)N1CCOCC1,active: 61.4%
18,COc1ccccc1NC(=O)C1CCN(C(=O)NCc2ccccc2)CC1,active: 50.6%
19,Cc1cc2cc(CNC(=S)NC3CCCCC3)ccc2n1C,inactive: 3.1%
20,CCCOC(=O)c1[nH]c2c(c1C)C(=O)CC(c1cccs1)C2 (configuration not stated),inconclusive: -131%
21,CCOc1ncccc1C(=O)N1CCN(c2cccc(C)c2C)CC1,inconclusive: -173%
22,O=C(NC(=S)Nc1cc(Cl)ccc1N1CCOCC1)c1ccc(-c2cccc(Cl)c2)o1,inconclusive: 116%

row,SMILES,inhibition
1,CCOC(=O)c1cnc(SCC(=O)Nc2cc(C(F)(F)F)ccc2N2CCOCC2)nc1N,inconclusive: 108%
2,Cc1ccc(-c2c(C)nn3c(N4CCOCC4)cc(C)nc23)cc1,active: 70.6%
3,Cc1ccc(C(NC(=O)N2CC(C)OC(C)C2)C(Cl)Cl)cc1F (configuration not stated),inconclusive: 115%
4,CCOc1ccc2c(c1)C(C)=CC(C)(C)N2S(=O)(=O)c1ccc(C)cc1,inconclusive: -261%
5,CCOC(=O)C(C)Oc1ccccc1C1NC(=O)NC(C)=C1C(=O)Nc1ccc(C)c(C)c1 (configuration not stated),inconclusive: 113%
6,Cc1ccc2[nH]c(C)c(CC(=O)NCc3ccccc3)c2c1,active: 71.8%
7,O=C(O)/C=C/c1ccccc1Oc1ccc(Cl)cc1Cl,inactive: 13.9%
8,O=C(N/N=C/c1ccc([N+](=O)[O-])o1)c1cc(-c2ccc(-c3ccccc3)cc2)nc2ccccc12,inconclusive: -155%
9,Cc1ccc(CNC(=O)c2ccc(N3CCC4(CC3)CC(c3ccccc3)=NO4)c(N)c2)cc1,active: 52.2%
10,COc1ccc(C(=O)N=C2SC3CS(=O)(=O)CC3N2Cc2ccccc2)cc1OC (configuration not stated),inactive: 7.5%
11,Cc1ccc(NC(=S)NNC(=S)Nc2ccc(C)cc2C)cc1,inconclusive: -168%
12,CSC1=NC(C(Cl)(Cl)Cl)N=C(c2ccc(C)cc2)N1 (configuration not stated),inconclusive: -225%
13,O=[N+]([O-])c1ccc(/C=C/C2=NN(c3ccccc3)C(c3ccco3)C2)o1 (configuration not stated),active: 53.6%
14,CCOc1ccc(NC(=S)N2CCN(S(C)(=O)=O)CC2)cc1,inactive: -3.7%
15,CCOC(=O)c1[nH]c(C)c(C(=O)Nc2cc(Cl)ccc2C)c1C,inconclusive: -112%
16,Cc1ncc(S(=O)(=O)c2ccc(Cl)cc2)c(-c2ccccc2)n1,inconclusive: 121%
17,COCCOC(=O)C1=C(C)NC(C)=C(C(=O)OC(C)C)C1c1cccc([N+](=O)[O-])c1 (configuration not stated),inconclusive: -92.9%
18,COc1ccccc1NC(=S)N(Cc1ccco1)Cc1cc2cc(C)c(C)cc2[nH]c1=O,inconclusive: -111%
19,CCOc1cc(C(=O)Nc2ccc(N3CCN(S(C)(=O)=O)CC3)cc2)cc(OCC)c1OCC,active: 61.4%
20,CCC(C)N(CC(=O)Nc1cccc(C)c1C)C(=O)CCl (configuration not stated),inconclusive: 1.6%
21,Cc1cc(O)c(C)c(O)c1/C=N/NC(=O)c1cccnc1,active: 59.1%
22,CC(C)c1nc2cc(C(=O)NC(C)c3cnn(C)c3)ccc2o1 (configuration not stated),inconclusive: 118%

row,SMILES,inhibition
1,COc1ccc(Nc2nc(-c3c(C)nc4ncccn34)cs2)cc1,inconclusive: -128%
2,O=[N+]([O-])c1cccc(Oc2cnccn2)c1,inconclusive: -123%
3,O=C(Nc1ncc(Cc2ccc(SC(F)F)cc2)s1)c1ccc(OC(F)F)cc1,inconclusive: -342%
4,CCO[C@H]1OC(C(=O)NCc2nc3ccccc3[nH]2)=C[C@@H](C2CC2)[C@@H]1CCCO,inconclusive: -156%
5,COc1ccccc1C1=NOC(COc2ccc3c(C)cc(=O)oc3c2)C1 (configuration not stated),inconclusive: -192%
6,COc1ccc(C(=O)OCC(=O)NC(C)CCc2ccccc2)cc1OC (configuration not stated),active: 62.5%
7,CCCCCOC(=O)c1[nH]c2c(c1C)C(=O)CC(c1ccco1)C2 (configuration not stated),inconclusive: -352%
8,Cc1cc(-n2cnnn2)cc(C)c1S(=O)(=O)NCCOc1ccccc1,active: 61.2%
9,O=C(N/N=C/c1ccc(O)cc1)c1[nH]c2ccc(Br)cc2c1-c1ccccc1,inconclusive: 131%
10,Cc1cccc2nc(CNC(=O)C3CCC(=O)N(Cc4ccccc4F)C3)cn12 (configuration not stated),inactive: 4.6%
11,O=C(c1cc([N+](=O)[O-])ccc1N1CCOCC1)N1CCN(c2ccccc2)CC1,inconclusive: -231%
12,Cc1cc(NC(=O)CSc2nnc(-c3ccccc3)n2C)no1,inactive: 0.4%
13,O=S(=O)(c1ccc(Cl)c(NC(=S)N/N=C/c2c(F)cccc2F)c1)N1CCOCC1,inactive: 0.3%
14,COc1cc(-c2c(-c3cc(OC)c(OC)c(OC)c3)noc2C)ccc1F,inconclusive: -183%
15,CCN(CCCNC(=O)c1c(C)cc(=O)oc1C)c1ccccc1,inconclusive: 117%
16,CCN(CC)C(=O)CC(c1ccc(OC)cc1)c1c(OC)cc(OC)c2ccc(=O)oc12 (configuration not stated),active: 64.4%
17,Cc1ccc(C(Sc2ccccc2)C(Cn2cncn2)C(=O)c2ccccc2)cc1 (configuration not stated),inactive: -9.4%
18,CCOC(=O)C1CCC(CN(Cc2ccccc2)S(=O)(=O)c2ccc([N+](=O)[O-])cc2)CC1 (configuration not stated),active: 59.4%
19,CCc1ccc(C(=O)CSc2nc3cc(S(=O)(=O)N4CCOCC4)ccc3n2CC)cc1,active: 115%
20,C[C@H](NC(=O)[C@@H]1CSC2c3ccccc3C(=O)N21)C(=O)NCCc1ccc(F)cc1 (some centres not stated),inconclusive: -316%
21,Cc1ccccc1OCCc1c(C)[nH]c(=S)[nH]c1=O,inconclusive: -136%
22,Cc1nc2c(ccc3nc(NC(=O)C4CC4)sc32)s1,inactive: 26.1%

row,SMILES,inhibition
1,COc1cccc2sc(Nc3nc(-c4ccncc4)cs3)nc12,inconclusive: -152%
2,CCCC(=O)Nc1cc(C)c2c(=O)oc3ccccc3c2n1,inactive: 16.4%
3,O=C(/C=C\c1ccco1)Nc1cc([N+](=O)[O-])ccc1F,inconclusive: -10.6%
4,CCOC(=O)C1CCN(C(=O)C2(NC(=O)Nc3ccc(F)cc3F)CCCCC2)CC1,active: 69.4%
5,Cc1ccc(S(=O)(=O)N2CCOCC2)cc1NC(=O)COC(=O)c1ccc(OCc2c(C)noc2C)cc1,inactive: 10.2%
6,CCc1cccc(C)c1NC(=S)NCc1cccn1C,inconclusive: -36.4%
7,O=C(CN1CCCC1)Nc1ccc(S(=O)(=O)N2CCCCC2)cc1,inconclusive: 111%
8,COc1ccc(CCNC2CCc3ccccc3C2)cc1 (configuration not stated),inconclusive: 112%
9,Cc1ccc(C(=O)c2cc([N+](=O)[O-])ccc2N2CCCCC2)c(C)c1,inconclusive: -331%
10,CCOc1ccc(/C(O)=C2/C(=O)C(=O)N(c3ncccn3)C2c2ccccc2)cc1 (configuration not stated),inconclusive: -149%
11,COCCCN1C(=O)N(c2ccccc2)C(=O)C1CC(=O)Nc1ccccc1 (configuration not stated),inconclusive: 147%
12,COc1ccccc1NC(=O)c1c(N=Cc2ccccc2O)cnn1C,inactive: 13.6%
13,COc1ccc([N+](=O)[O-])cc1NC(=O)C(C)N(C)Cc1ccc(Br)cc1 (configuration not stated),inconclusive: -16.6%
14,CCOc1ccc(C(=O)NC(=S)Nc2ccc(NC(=O)c3ccco3)cc2)cc1[N+](=O)[O-],inactive: 0.9%
15,CCOC(=O)Nc1nc(-c2ccccc2)c(C(=O)c2ccc(Cl)cc2)s1,inconclusive: -215%
16,COc1ccc(/C=C/C(=O)c2cc(F)ccc2OC(=O)c2ccccc2C)cc1OC,inconclusive: 50.3%
17,CCOC(=O)C1=C(N)Oc2ccc3ccccc3c2C1c1cccc(O)c1 (configuration not stated),inactive: -2%
18,COc1ccc(-n2nnnc2-c2cccc(OC)c2)cc1,inconclusive: -52.7%
19,Cc1ccc(/C=N/NC(=O)c2n[nH]c3c2CCCC3)cc1,inconclusive: -224%
20,Cc1ccc(NC2CCCN(C(=O)c3cn(C)c4ccccc34)C2)cc1C (configuration not stated),inactive: -34.7%
21,CCc1ccc(/C=N/NC(=O)c2cc(-c3ccncc3)nc3ccccc23)s1,inconclusive: -90.1%
